{"source": "the supplement of paper PMC4604168 (melanoma cell lines)", "note": "The other results are listed elsewhere or left out. Single values are uncertain, as repeats are few or missing.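 Also: cells treated in 1,536-well plates, then fixed and DAPI-stained, with nuclei counted from automated high-throughput microscope images.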", "data": [{"system": "WM3619", "experiment": "cell count relative to DMSO control; melanoma cells; higher = more viable cells", "conditions": "library dose: standard library concentration; 72 h", "units": {"cell count": "%"}, "values": [{"smiles": "OCc1c[nH]c2ccccc12", "note": "[Indole-3-carbinol] + COc1ccc(Cl)c(Nc2nc3ccccc3nc2NS(=O)(=O)c2cccc(NC(=O)C(C)(C)N)c2)c1 [XL147] (first compound 4 µM, partner dose 4 µM)", "cell count": 74}, {"smiles": "OCc1c[nH]c2ccccc12", "note": "[Indole-3-carbinol] + Cn1nnc2c(C(N)=O)ncn2c1=O [temozolomide] (first compound 4 µM, partner dose 10 µM)", "cell count": 101}, {"smiles": "Clc1ccc(Nc2nnc(Cc3ccncc3)c3ccccc23)cc1", "note": "[vatalanib] + C[C@@H]1CCN(C(=O)CC#N)C[C@@H]1N(C)c1ncnc2[nH]ccc12 [CP690550] (first compound 10 µM, partner dose 5 µM)", "cell count": 50.8}, {"smiles": "Cn1c(Nc2ccc(C(F)(F)F)cc2)nc2cc(Oc3ccnc(-c4ncc(C(F)(F)F)[nH]4)c3)ccc21", "note": "+ Nc1cccc2c1CN(C1CCC(=O)NC1=O)C2=O [lenalidomide] (first compound 0.4 µM, partner dose 5 µM)", "cell count": 46.9}, {"smiles": "Clc1ccc(Nc2nnc(Cc3ccncc3)c3ccccc23)cc1", "note": "[vatalanib] + O=C(O)c1ccc(-c2c[nH]c3ncc(-c4ccccc4)cc23)cc1C1CCCC1 [GSK650394] (first compound 10 µM, partner dose 0.8 µM)", "cell count": 96.9}, {"smiles": "COCC[n+]1c2c(n(Cc3cnccn3)c1C)C(=O)c1ccccc1C2=O", "note": "+ Cn1nnc2c(C(N)=O)ncn2c1=O [temozolomide] (first compound 0.002 µM, partner dose 10 µM)", "cell count": 66.2}, {"smiles": "Clc1ccc(Nc2nnc(Cc3ccncc3)c3ccccc23)cc1", "note": "[vatalanib] + C#Cc1cccc(Nc2ncnc3cc(OCCOC)c(OCCOC)cc23)c1 [erlotinib] (first compound 10 µM, partner dose 4 µM)", "cell count": 67}, {"smiles": "Clc1ccc(Nc2nnc(Cc3ccncc3)c3ccccc23)cc1", "note": "[vatalanib] + COCC[n+]1c2c(n(Cc3cnccn3)c1C)C(=O)c1ccccc1C2=O [YM155] (first compound 10 µM, partner dose 0.002 µM)", "cell count": 69.1}, {"smiles": "Cn1c(Nc2ccc(C(F)(F)F)cc2)nc2cc(Oc3ccnc(-c4ncc(C(F)(F)F)[nH]4)c3)ccc21", "note": "+ C[C@]1(c2nc3c(C(N)=O)cccc3[nH]2)CCCN1 [Veliparib] (first compound 0.4 µM, partner dose 7 µM)", "cell count": 34.4}, {"smiles": "Nc1cccc2c1CN(C1CCC(=O)NC1=O)C2=O", "note": "(configuration not stated) [lenalidomide] + CO[C@@H]1[C@H](N(C)C(=O)c2ccccc2)C[C@H]2O[C@]1(C)n1c3ccccc3c3c4c(c5c6ccccc6n2c5c31)C(=O)NC4 [Midostaurin] (first compound 5 µM, partner dose 0.4 µM)", "cell count": 66.1}, {"smiles": "C#Cc1cccc(Nc2ncnc3cc(OCCOC)c(OCCOC)cc23)c1", "note": "[erlotinib] + C[C@]1(c2nc3c(C(N)=O)cccc3[nH]2)CCCN1 [Veliparib] (first compound 4 µM, partner dose 7 µM)", "cell count": 72.5}, {"smiles": "OCc1c[nH]c2ccccc12", "note": "[Indole-3-carbinol] + C[C@]1(c2nc3c(C(N)=O)cccc3[nH]2)CCCN1 [Veliparib] (first compound 4 µM, partner dose 7 µM)", "cell count": 92}, {"smiles": "COCC[n+]1c2c(n(Cc3cnccn3)c1C)C(=O)c1ccccc1C2=O", "note": "+ C[C@]1(c2nc3c(C(N)=O)cccc3[nH]2)CCCN1 [Veliparib] (first compound 0.002 µM, partner dose 7 µM)", "cell count": 70.2}, {"smiles": "Clc1ccc(Nc2nnc(Cc3ccncc3)c3ccccc23)cc1", "note": "[vatalanib] + CN(C)S(=O)(=O)c1ccc2c(c1)/C(=C/c1cc3c([nH]1)CCCC3)C(=O)N2 [SU6656] (first compound 10 µM, partner dose 2 µM)", "cell count": 45.2}, {"smiles": "OCc1c[nH]c2ccccc12", "note": "[Indole-3-carbinol] + Clc1ccc(Nc2nnc(Cc3ccncc3)c3ccccc23)cc1 [vatalanib] (first compound 4 µM, partner dose 10 µM)", "cell count": 89.6}, {"smiles": "COCC[n+]1c2c(n(Cc3cnccn3)c1C)C(=O)c1ccccc1C2=O", "note": "+ Nc1cccc2c1CN(C1CCC(=O)NC1=O)C2=O [lenalidomide] (first compound 0.002 µM, partner dose 5 µM)", "cell count": 55.1}, {"smiles": "C#Cc1cccc(Nc2ncnc3cc(OCCOC)c(OCCOC)cc23)c1", "note": "[erlotinib] + COCC[n+]1c2c(n(Cc3cnccn3)c1C)C(=O)c1ccccc1C2=O [YM155] (first compound 4 µM, partner dose 0.002 µM)", "cell count": 54.4}, {"smiles": "Clc1ccc(Nc2nnc(Cc3ccncc3)c3ccccc23)cc1", "note": "[vatalanib] + COc1ccc(Cl)c(Nc2nc3ccccc3nc2NS(=O)(=O)c2cccc(NC(=O)C(C)(C)N)c2)c1 [XL147] (first compound 10 µM, partner dose 4 µM)", "cell count": 67.5}, {"smiles": "C#Cc1cccc(Nc2ncnc3cc(OCCOC)c(OCCOC)cc23)c1", "note": "[erlotinib] + Cn1c(Nc2ccc(C(F)(F)F)cc2)nc2cc(Oc3ccnc(-c4ncc(C(F)(F)F)[nH]4)c3)ccc21 [CHIR265] (first compound 4 µM, partner dose 0.4 µM)", "cell count": 44.3}, {"smiles": "OCc1c[nH]c2ccccc12", "note": "[Indole-3-carbinol] + Cc1nc(Nc2ncc(C(=O)Nc3c(C)cccc3Cl)s2)cc(N2CCN(CCO)CC2)n1 [dasatanib] (first compound 4 µM, partner dose 0.02 µM)", "cell count": 50.1}, {"smiles": "C#Cc1cccc(Nc2ncnc3cc(OCCOC)c(OCCOC)cc23)c1", "note": "[erlotinib] + COc1ccc(Cl)c(Nc2nc3ccccc3nc2NS(=O)(=O)c2cccc(NC(=O)C(C)(C)N)c2)c1 [XL147] (first compound 4 µM, partner dose 4 µM)", "cell count": 68.6}, {"smiles": "OCc1c[nH]c2ccccc12", "note": "[Indole-3-carbinol] + C=CCn1c(=O)c2cnc(Nc3ccc(N4CCN(C)CC4)cc3)nc2n1-c1cccc(C(C)(C)O)n1 [MK1775] (first compound 4 µM, partner dose 0.1 µM)", "cell count": 60.5}]}]}
